Consider 59 compounds from the supplement of paper PMC9446081.

Structures are written as SMILES. Out of some 39,000 compounds screened, about 220 (0.56%) showed activity. Some of the results follow.
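Further: static incubation at 37 °C against the wild-type strain, values averaged over two biological replicates.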

The test system of this test is Escherichia coli K-12 BW25113. The experiment in a line: relative growth (OD600 normalised to plate interquartile mean) (fraction); higher = less growth inhibition, active = 0.2 or less. The conditions noted are these: 50 µM; LB; incubation time: overnight (16-24 h).
For the compound `N[C@@H](CO)c1cccc(Br)c1`, the relative growth was inactive: 0.934. Regarding `C[C@@H]1CN([C@H](C)CO)C(=O)c2cc(NC(=O)Cc3cn(C)c4ccccc34)ccc2O[C@@H]1CN(C)S(C)(=O)=O`, the relative growth is inactive: 0.992. `COc1cc(OC)cc(-c2ccc([C@H]3CC(=O)C[C@@H](c4ccccc4)C34C(=O)OC(C)(C)OC4=O)cc2)c1`: the relative growth was inactive: 1.02.

Regarding `CC[C@@H](CN)Cc1ccccc1`, the relative growth was inactive: 0.923. For the compound `COc1ccc(NC(=O)N(C)C[C@@H]2OCc3ccccc3-c3c(n(C)c4ccccc34)C(=O)N([C@@H](C)CO)C[C@H]2C)cc1`, the relative growth is inactive: 1. With `C[C@H]1CN([C@@H](C)CO)S(=O)(=O)c2ccc(C3=CCCC3)cc2O[C@H]1CN(C)C(=O)Cc1ccncc1`, the relative growth was inactive: 1. As to `C[C@H](CO)N1C[C@H](C)[C@@H](CN(C)S(=O)(=O)c2ccc(Cl)cc2)Oc2ccc(NC(=O)CCCN(C)C)cc2C1=O`, the relative growth is inactive: 1. Turning to `Cc1ccc(S(=O)(=O)N[C@H]2CC[C@H](CC(=O)NCc3ccc(Cl)c(Cl)c3)O[C@@H]2CO)cc1`, the relative growth is inactive: 0.817. The same measure for `Cc1noc(C)c1S(=O)(=O)N(C)C[C@@H]1Oc2ccc(N(C)C)cc2CC(=O)N([C@H](C)CO)C[C@H]1C`: inactive: 0.993; for `Cc1noc(C)c1NC(=O)Nc1ccc2c(c1)CC(=O)N([C@@H](C)CO)C[C@@H](C)[C@@H](CN(C)S(C)(=O)=O)O2`: inactive: 0.963. To `Cc1noc(C)c1NC(=O)N(C)C[C@H]1Oc2ccc(NS(=O)(=O)c3c(C)noc3C)cc2CC(=O)N([C@H](C)CO)C[C@@H]1C` belongs inactive: 1.01. Turning to `C[C@@H]1CN([C@@H](C)CO)C(=O)c2cc(NC(=O)CCC(F)(F)F)ccc2O[C@@H](C)CCCCO[C@H]1CN(C)C(=O)Cc1ccccc1`, the relative growth is inactive: 1.02. As for `C[C@@H]1CN([C@H](C)CO)C(=O)c2cc(NC(=O)Cc3ccccc3)ccc2O[C@@H](C)CCCCO[C@@H]1CN(C)C(=O)NC1CCCCC1`, the relative growth is inactive: 1.

`C[C@@H]1CN([C@@H](C)CO)C(=O)c2cc(C#CC3(O)CCCC3)cnc2O[C@H]1CN(C)S(=O)(=O)c1ccc(F)cc1`: the relative growth was inactive: 0.998. For `C[C@H](CO)N1C[C@H](C)[C@@H](CN(C)Cc2ccc(C(=O)Nc3ccccc3N)cc2)Oc2c(NS(=O)(=O)c3cn(C)cn3)cccc2C1=O`, the relative growth was inactive: 0.994. The same measure for `C[C@@H]1CN([C@H](C)CO)C(=O)Cc2cc(NC(=O)C3CC3)ccc2O[C@@H]1CN(C)S(=O)(=O)c1ccc(F)cc1`: inactive: 0.964; for `C[C@@H]1CN([C@H](C)CO)C(=O)Cc2cc(NC(=O)Nc3ccc(C(F)(F)F)cc3)ccc2O[C@H]1CN(C)Cc1ccccc1`: inactive: 0.983.

For the compound `O=C(C[C@@H]1C[C@H]2c3cc(NC(=O)C4CCOCC4)ccc3O[C@H]2[C@@H](CO)O1)NCCN1CCCCC1`, the relative growth is inactive: 0.915. To `Cc1nnsc1C(=O)NCC1(O)CCCC1` belongs inactive: 0.998; to `Cc1noc(C)c1NC(=O)N(C)C[C@H]1OCCCC[C@H](C)Oc2ccc(NC(=O)c3ccccc3)cc2C(=O)N([C@H](C)CO)C[C@@H]1C`, inactive: 0.998; to `C[C@H]1CN([C@@H](C)CO)C(=O)c2cc(NC(=O)Nc3ccc4c(c3)OCO4)ccc2O[C@@H]1CN(C)C(=O)Nc1ccc(C(F)(F)F)cc1`, inactive: 0.99. Take `C[C@@H]1CN([C@@H](C)CO)C(=O)c2cc(NC(=O)Nc3ccc(F)cc3)ccc2O[C@@H](C)CCCCO[C@@H]1CN(C)C(=O)NC1CCCCC1`: the relative growth is inactive: 0.988.

`C[C@@H]1CCCCO[C@@H](CN(C)Cc2ccncc2)[C@H](C)CN([C@H](C)CO)C(=O)c2cc(NC(=O)Nc3cccc4ccccc34)ccc2O1`: the relative growth is inactive: 1.02.

Consider `CC(C)(C)OC(=O)Cn1ccc(=O)[nH]c1=O`, for which the relative growth was inactive: 1.03.

With `COCC(=O)Nc1ccc2c(c1)OC[C@H](C)N(C(=O)Cc1ccccn1)C[C@H](C)[C@H](OC)CN(C)C2=O`, the relative growth is inactive: 0.995. For `COc1cccc(NC(=O)C[C@@H]2CC[C@H]3[C@@H](COc4ccc(NC(=O)C5CCOCC5)cc4C(=O)N3C)O2)c1`, the relative growth was inactive: 1.01.

Turning to `C[C@@H]1CN([C@H](C)CO)C(=O)c2c(c3ccccc3n2C)-c2ccccc2CO[C@H]1CN(C)Cc1ccc(C(=O)O)cc1`, the relative growth was inactive: 0.98. As for `COC(=O)[C@@H](N)Cc1ccc(-n2cc(CCC(=O)NO)nn2)cc1`, the relative growth was inactive: 0.782.

With `CO[C@@H]1CN(C)C(=O)c2cc(NS(C)(=O)=O)ccc2OC[C@H](C)N(C(=O)c2ccc3c(c2)OCO3)C[C@@H]1C`, the relative growth was inactive: 1.01. Turning to `C[C@@H]1CCCCO[C@@H](CN(C)C(=O)Nc2ccc(C(F)(F)F)cc2)[C@H](C)CN([C@@H](C)CO)C(=O)c2cc(NS(=O)(=O)c3ccc(F)cc3)ccc2O1`, the relative growth was inactive: 1.01.

Turning to `CC(C)NC(=O)Nc1ccc2c(c1)CC(=O)N([C@H](C)CO)C[C@H](C)[C@H](CN(C)Cc1ccc3c(c1)OCO3)O2`, the relative growth is inactive: 1.01.

In the case of `C[C@@H]1CCCCO[C@H](CN(C)C(=O)NC2CCCCC2)[C@H](C)CN([C@@H](C)CO)C(=O)c2cc(NC(=O)NC3CCCCC3)ccc2O1`, the relative growth was inactive: 1.03. For the compound `C[C@@H]1CN([C@@H](C)CO)C(=O)c2cc(-c3cccc(C(=O)N(C)C)c3)cnc2O[C@@H]1CN(C)C(=O)Cc1ccccn1`, the relative growth was inactive: 0.978.

`O=C(C[C@H]1C[C@@H]2c3cc(NS(=O)(=O)c4ccc(F)cc4)ccc3O[C@@H]2[C@@H](CO)O1)NCc1ccc(Oc2ccccc2)cc1`: the relative growth is inactive: 1.02. On to `COc1ccc(-c2cnc3c(c2)C(=O)N([C@H](C)CO)C[C@H](C)[C@H](CN(C)S(=O)(=O)c2ccc(F)cc2)O3)cc1`, for which the relative growth was inactive: 0.997.

In the case of `C[C@@H]1CN([C@@H](C)CO)C(=O)Cc2cc(NC(=O)Nc3ccc(C(F)(F)F)cc3)ccc2O[C@H]1CN(C)C(=O)Nc1ccc2c(c1)OCO2`, the relative growth was inactive: 1.02. As for `O=C(C=Cc1ccc(O)cc1)c1ccccc1`, the relative growth was inactive: 0.931. As for `C[C@H](CO)N1C[C@H](C)[C@H](CN(C)S(=O)(=O)c2cccs2)Oc2ccc(NC(=O)Nc3cccc4ccccc34)cc2C1=O`, the relative growth was inactive: 0.985. For `C[C@@H]1CN([C@@H](C)CO)C(=O)c2cc(NS(C)(=O)=O)ccc2O[C@@H](C)CCCCO[C@H]1CN(C)C(=O)Nc1ccc(C(F)(F)F)cc1`, the relative growth is inactive: 0.999. Regarding `CO[C@H]1CN(C)C(=O)c2cc(NS(=O)(=O)CC(F)(F)F)ccc2OC[C@@H](C)N(Cc2cccnc2)C[C@H]1C`, the relative growth is inactive: 0.997. To `C[C@H](CO)N1C[C@H](C)[C@H](CN(C)C(=O)Nc2cccc3ccccc23)Oc2c(NC(=O)c3ccc(-c4nccs4)cc3)cccc2C1=O` belongs inactive: 1; to `CC(C)CC#Cc1ccc2c(c1)O[C@H](CN(C)C(=O)Cc1cccnc1)[C@@H](C)CN([C@@H](C)CO)S2(=O)=O`, inactive: 0.99; to `C[C@H](O)C#Cc1cnc2c(c1)C(=O)N([C@@H](C)CO)C[C@@H](C)[C@@H](CN(C)Cc1cncnc1)O2`, inactive: 0.993. The same measure for `CN1C(=O)Cc2cc(NS(C)(=O)=O)ccc21`: inactive: 0.981; for `Cc1ccc(S(=O)(=O)N(C)C[C@@H]2OCCCC[C@H](C)Oc3ccc(NC(=O)C4CCCCC4)cc3C(=O)N([C@H](C)CO)C[C@@H]2C)cc1`: inactive: 0.997. Turning to `C[C@H]1CN([C@@H](C)CO)C(=O)CCCn2nncc2CO[C@@H]1CN(C)Cc1ccc(C(=O)Nc2ccccc2N)cc1`, the relative growth is inactive: 1.03. Turning to `COc1ccc(NC(=O)Nc2ccc3c(c2)C(=O)N([C@@H](C)CO)C[C@@H](C)[C@@H](CN(C)Cc2ccc(Cl)c(Cl)c2)OCCCC[C@H](C)O3)cc1`, the relative growth is inactive: 1.02. To `C[C@@H]1CN([C@@H](C)CO)C(=O)c2cc(NS(=O)(=O)c3ccc(Cl)cc3)ccc2O[C@@H]1CN(C)Cc1ccc(-c2ccccc2)cc1` belongs inactive: 1. The same measure for `CC(C)NC(=O)N(C)C[C@H]1OCCCC[C@H](C)Oc2ccc(NS(=O)(=O)c3cn(C)cn3)cc2C(=O)N([C@H](C)CO)C[C@@H]1C`: inactive: 0.979.

`O=C1OCCC=C[C@H]2O[C@@]34C=CCN(Cn5nnc6ccccc65)C(=O)[C@H]3N(CCCCCO)C(=O)[C@@H]4[C@@H]12`: the relative growth is inactive: 1.02. The same measure for `C[C@@H]1CN([C@H](C)CO)C(=O)c2cc(C#CCN(C)C)cnc2O[C@H]1CN(C)C(=O)CCN1CCCCC1`: inactive: 0.983; for `O=C1OCC=C[C@H]2O[C@@]34C=CCN(Cn5nnc6ccccc65)C(=O)[C@H]3N(CCCCCCO)C(=O)[C@@H]4[C@@H]12`: inactive: 0.971; for `Cc1ccc(S(=O)(=O)Nc2ccc3c(c2)CC(=O)N([C@H](C)CO)C[C@@H](C)[C@H](CN(C)C(=O)NC(C)C)O3)cc1`: inactive: 1.01.

Consider `C[C@@H]1CN([C@@H](C)CO)C(=O)c2cc(NS(=O)(=O)c3ccc(F)cc3)ccc2O[C@H]1CN(C)S(C)(=O)=O`, for which the relative growth was inactive: 1.03. To `C[C@H](CO)N1C[C@H](C)[C@@H](CN(C)Cc2ccc(-c3ccccc3)cc2)Oc2ccc(NC(=O)Nc3ccccc3)cc2C1=O` belongs inactive: 0.974. For the compound `C[C@H]1CN([C@@H](C)CO)C(=O)c2cc(-c3ccc(F)cc3)cnc2O[C@H]1CN(C)C(=O)Cc1ccccn1`, the relative growth was inactive: 1.01. With `O=C(C[C@@H]1CC[C@@H]2[C@H](COC[C@H](O)CN2C(=O)c2ccc3c(c2)OCO3)O1)NCCN1CCCC1`, the relative growth is inactive: 1.03.

`Cc1ccc(S(=O)(=O)N(C)C[C@H]2Oc3ccc(NC(=O)C4CC4)cc3CC(=O)N([C@H](C)CO)C[C@@H]2C)cc1`: the relative growth is inactive: 0.983. To `COc1ccc(NC(=O)N(C)C[C@@H]2Oc3c(NC(=O)Nc4cccc5ccccc45)cccc3C(=O)N([C@@H](C)CO)C[C@@H]2C)cc1` belongs inactive: 1.01.
